# Hit rate of the full screen: of about 200,000 compounds, about 4,500 (2.2%) were called active. Inconclusive results, whose numbers are uncertain, are shown with a selection of clear calls. The call rests on the fitted dose curve; in most records, active means well fitted inhibition curve with a large enough effect; inconclusive means small, poorly fitted or top-dose-only effect, or effect the other way; inactive means flat fitted curve, though single readings scatter. Potencies beside an inconclusive call are fits to weak or partial responses and may not hold up.
# Target: Cruzipain (Trypanosoma cruzi) (UniProt P25779)
# Test: qHTS Assay for Promiscuous and Specific Inhibitors of Cruzain (without detergent); further: nearly all actives have a fitted effect of over 40% in size
# Details: purified cruzain, Z-FR-AMC fluorescence, no detergent
# Protocol: Cruzain is a cysteine protease from the tropical parasite Trypanosoma cruzi. Dual qHTS experiment was performed against the NCGC compound collection in order to 1) identify novel inhibitors of the enzyme and 2) profile the compound collection for promiscuous inhibitors operating via colloidal aggregation (by performing detergent-free and detergent-containing comparison screens). Cruzain was assayed by the use of fluorogenic coumarin-based substrate Z-FR-AMC: proteolytic cleavage releases AMC, whose fluorescence is measured at 360 nm excitation and 450 nm emission. Purified cruzain was supplied by the labs of Prof. James McKerrow and Brian Shoichet, UC San Francisco.
# This assay had 0.00005% Triton X-100 concentration. See also releated assay "qHTS Assay for Promiscuous and Specific Inhibitors of Cruzain (with detergent)" with 0.01% Triton X-100.
# See following references for additional details:
# Assay Provider: Shoichet, Brian; University of California, San Fancisco
# Screening Center PI: Austin, C.P.
# Screening Center: NIH Chemical Genomics Center [NCGC]
# Buffer: 100 mM Sodium Acetate, pH 5.5, 5 mM DTT, Triton X-100 concentration: 0.01%.
# Buffer in columns 3 and 4 as negative control (no enzyme).
# Substrate solution: 2 uM final concentration of Z-FR-AMC (catalog number I-1160, Bachem) dispensed throughout the plate.
# Enzyme: 1.5 nM Cruzain final concentration in columns 1, 2, 5-48. Column 1 is neutral (100% activity). Column 2 contained titration of covalent inhibitor K11777, starting concentration 1 mM, then 1:2 dilution in duplicate).
# Three uL of enzyme or buffer were dispensed to 1536-well Greiner black solid bottom plates. Compounds and controls (23 nL) were transferred via Kalypsys PinTool. The plates were incubated for 15 min at room temperature, and then 1 uL of substrate solution was added to start the reaction. The plates were immediately transferred to and read 4 times every 30 seconds for 2 min on ViewLux High-throughput CCD imager (Perkin-Elmer) using 360 nm excitation and 450 nm emission fluorescence protocol. The fluorescence intensity difference between the third and the first time points (time lapse of 60 seconds) was used to compute reaction progress.
# Potency means the concentration at half of the fitted maximal effect; tags describe the fitted curve by direction and shape.
# Sequence of UniProt P25779 (P25779 whole entry, looked up): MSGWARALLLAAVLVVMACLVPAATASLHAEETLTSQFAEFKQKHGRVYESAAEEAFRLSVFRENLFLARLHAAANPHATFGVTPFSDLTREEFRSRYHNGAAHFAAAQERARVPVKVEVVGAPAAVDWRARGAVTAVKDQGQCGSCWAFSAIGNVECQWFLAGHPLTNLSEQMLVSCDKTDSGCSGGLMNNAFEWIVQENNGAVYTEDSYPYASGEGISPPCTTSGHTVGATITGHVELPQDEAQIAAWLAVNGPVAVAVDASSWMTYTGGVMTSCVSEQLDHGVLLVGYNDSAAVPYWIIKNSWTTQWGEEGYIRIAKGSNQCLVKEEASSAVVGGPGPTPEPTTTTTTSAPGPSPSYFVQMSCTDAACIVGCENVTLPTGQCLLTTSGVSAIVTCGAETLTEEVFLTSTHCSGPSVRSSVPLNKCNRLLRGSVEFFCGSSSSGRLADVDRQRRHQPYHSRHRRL
SMILES,"max response, negative = inhibition",Potency
COc1ccc(C2C3C(=O)N(Cc4ccccc4)C(=O)C3ON2c2ccccc2)c(OC)c1OC (centres undefined),inactive: 13.1%,
CCCCN1C(=O)c2ccc(C(=O)Nc3cccc(C)c3C)cc2C1=O,,"inconclusive: 39.8 µM [inhibitor, single point]"
CCc1cccc(C)c1NC(=O)CSc1nc(-c2ccccc2F)nc2nc[nH]c12,,"inconclusive: 39.8 µM [inhibitor, single point]"
COc1ccc(NC(=O)CSc2oc(-c3cccs3)nc2S(=O)(=O)c2ccc(Br)cc2)c(OC)c1,inactive: -6.65%,
O=C(Nc1ccc(NC(=O)c2ccc(S(=O)(=O)c3ccccc3)cc2)cc1)c1ccccc1,,active: 3.98 µM
CCOc1ccc(NC(=S)N(CCc2c(C)[nH]c3ccccc23)Cc2ccco2)cc1,,"inconclusive: 39.8 µM [inhibitor, single point]"
O=C(c1cn(CCOc2ccccc2F)c2ccccc12)C1CCCCC1,inactive: -6.78%,
COc1cc(-c2cc(C(=O)N3CCN(c4ccccn4)CC3)c3ccccc3n2)cc(OC)c1OC,,"inconclusive: 25.1 µM [activator, single point]"
Cc1nn(Cc2cccc(C(=O)NC34CC5CC(CC(C5)C3)C4)c2)c(C)c1Br,,"inconclusive: 39.8 µM [inhibitor, single point]"
COc1ccccc1CN1COc2ccc3c(C)cc(=O)oc3c2C1,,"inconclusive: 31.6 µM [inhibitor, single point]"
Cc1cc(C(F)(F)F)nc(SCC(=O)NC2=NC(=O)C(C)S2)n1 (centres undefined),,"inconclusive: 39.8 µM [inhibitor, single point]"
COc1ccc(C(=O)NCCCc2nc3ccccc3n2Cc2cc(C)ccc2C)cc1OC,,"inconclusive: 31.6 µM [activator, single point]"
O=C1C2CC=CCC2C(=O)N1c1nc2n(n1)C(c1ccccc1)CC(c1ccccc1)N2 (centres undefined),,"inconclusive: 39.8 µM [activator, single point]"
CCOc1cccc(-c2nnc(SCC(=O)Nc3cc(C)ccc3OC)n2N)c1,,"inconclusive: 25.1 µM [activator, single point]"
O=C(COC(=O)C(Cc1c[nH]c2ccccc12)NC(=O)c1ccc(Br)cc1)c1ccc(Cl)cc1 (centres undefined),,"inconclusive: 39.8 µM [inhibitor, single point]"
C/C(=N\OC(=O)c1ccc(Cl)c(Cl)c1)c1sc(C)nc1C,,"inconclusive: 31.6 µM [activator, single point]"
COc1ccccc1-c1nnc(SC2CCc3ccccc3NC2=O)s1 (centres undefined),,"inconclusive: 25.1 µM [activator, single point]"
O=C(CSc1nnc(-c2ccc(F)cc2)c2ccccc12)Nc1c(F)cccc1F,,active: 15.8 µM
COc1ccc(N/C(N)=N/c2nc(CSc3ccc(Cl)cc3)cc(=O)[nH]2)cc1,inactive: -18%,
COc1ccc(N2CCN(C(=O)c3cc(S(=O)(=O)N4CCCCCC4)cn3C)CC2)cc1,,"inconclusive: 31.6 µM [activator, single point]"
CN(C)c1ccc(-c2cncnc2Nc2ccc(F)cc2)cc1,inactive: -14.9%,
CNC(=O)[C@]1(C)C[C@H]1[C@H](NC(=O)[C@]1(C)C[C@H]1[C@H](NC(=O)OCc1ccccc1)c1ccccc1)c1ccccc1,inactive: -1.17%,

SMILES,"max response, negative = inhibition",Potency
CCOC(=O)c1nc(Nc2ccc(C(=O)OCC(C)C)cc2)c2ccccc2n1,,"inconclusive: 39.8 µM [activator, single point]"
COc1ccc2c(c1)OCC(Cc1ccc(OC)c(O)c1)C2=O (centres undefined),inactive: -8.32%,
CCNC(=S)NNC(=O)c1cccnc1,,"inconclusive: 3.98 µM [activator, partial curve, poor fit]"
Cc1onc(-c2ccccc2Cl)c1C(=O)Nc1nnc(-c2ccc(Br)cc2)s1,,"inconclusive: 39.8 µM [inhibitor, single point]"
Oc1ccc2cc(SSc3ccc4cc(O)ccc4c3)ccc2c1,,"inconclusive: 31.6 µM [inhibitor, partial curve, poor fit]"
CC(C)CC(=O)NCc1nc2cccnc2n1Cc1ccccc1,inactive: 0.106%,
CCn1c2ccccc2c2cc(NC(=O)c3ccc([N+](=O)[O-])cc3)ccc21,,"inconclusive: 39.8 µM [inhibitor, single point]"
CCOc1ccc(NC(=O)C2CCN(S(=O)(=O)c3cc(-c4noc(C)n4)ccc3C)CC2)cc1,,"inconclusive: 10 µM [activator, partial curve]"
CCOC(=O)c1cc(-c2ccccc2)n(CC(=O)Nc2ccc(OC)cc2OC)c1C,inactive: -1.84%,
Cc1cccc(N2CCN(C(=O)C3CCN(S(=O)(=O)c4cccs4)CC3)CC2)c1C,inactive: -10.5%,
CCc1ccc(-c2nn(-c3cc(Cl)ccc3[N+](=O)[O-])c(=O)c3ccccc23)cc1,,"inconclusive: 39.8 µM [inhibitor, single point]"
Cc1ccc(C(=O)NCCc2sc(C)nc2C)cc1,,"inconclusive: 39.8 µM [inhibitor, single point]"
COc1ccc2[nH]c3c(c2c1)CCN=C3C,,active: 12.6 µM
C[C@@H]1OC(OC2C(OC3CC[C@@]4(C)C5CC=C6C7CC(C)(C)CC[C@@]7(C(=O)O)CCC6(C)C5(C)CCC4[C@]3(C)CO)OCC(O)C2O)C(O)C(O)C1O (some centres undefined),,"inconclusive: 20 µM [activator, partial curve]"
CN1CCc2c(sc(NC(=O)c3ccc(S(=O)(=O)N4CCOCC4)cc3)c2C(N)=O)C1,inactive: -20%,
CC(=O)c1ccc(N2CCC(c3cc(-c4ccc(Cl)cc4)n[nH]3)CC2)c([N+](=O)[O-])c1,,"inconclusive: 39.8 µM [inhibitor, single point]"
O=C(CSc1ccc(Cl)cc1)Nc1ccccc1N1CCN(C(=O)c2ccc(Cl)cc2)CC1,,"inconclusive: 31.6 µM [inhibitor, single point]"
COc1ccc(CCn2c(N)c(C(=O)NCc3ccco3)c3nc4ccccc4nc32)cc1,,"inconclusive: 39.8 µM [activator, single point]"
CCOc1ccc(N2CC(C(=O)NCCN3C(=O)S/C(=C\c4ccc(OC)cc4)C3=O)CC2=O)cc1 (centres undefined),,"inconclusive: 39.8 µM [activator, single point]"
CN(Cc1ccccc1)S(=O)(=O)c1ccc(S(=O)(=O)N(Cc2ccc(F)cc2)C2CCCC2)cc1,,"inconclusive: 20 µM [inhibitor, single point]"
COc1ccc(CC(=O)NCc2ccc3c(c2)CCN3C(=O)c2ccc(C)cc2)cc1OC,,"inconclusive: 39.8 µM [activator, single point]"
Cn1c(C(=O)NC2CCCCC2)cc2sccc21,,"inconclusive: 39.8 µM [inhibitor, single point]"

SMILES,"max response, negative = inhibition",Potency
CCn1nc(C)c(/C=C2\CCCC3=C2OC(N)=C(C#N)C3c2c(C)nn(CC)c2C)c1C (centres undefined),,"inconclusive: 31.6 µM [activator, single point]"
CCc1cccc(NC(=O)Cn2c(=O)n(CCc3ccc(OC)c(OC)c3)c(=O)c3ccccc32)c1,inactive: 16.7%,
O=C(Cc1cccc2ccccc12)N/N=C/c1ccc(OC(=O)/C=C/c2ccco2)cc1,,"inconclusive: 25.1 µM [inhibitor, partial curve, poor fit]"
Cc1ccc(CCNC(=O)Cn2c(-c3cccs3)cc3cc(F)ccc32)cc1,,active: 15.8 µM
O=C(O)C(Cl)Br (centres undefined),inactive: -6.75%,
Cc1cc2c(c3oc(=O)c4ccccc4c13)CN(Cc1ccc(F)cc1)CO2,inactive: -21.1%,
Cc1cc(C)c2oc(-c3cccc(NC(=O)c4ccco4)c3)nc2c1,,"inconclusive: 39.8 µM [activator, single point]"
CCCc1nc2sc3c(SCC(=O)NCc4ccco4)ncnc3c2c2c1CCC2,,"inconclusive: 25.1 µM [activator, partial curve]"
Clc1ccc2c(N/N=C/c3ccc(Br)cc3)ccnc2c1,,"inconclusive: 31.6 µM [inhibitor, single point]"
COc1cc(C(O)P(=O)(OC2CCCCC2)c2ccc(N(C)C)cc2)cc(OC)c1OC (centres undefined),,"inconclusive: 15.8 µM [activator, partial curve]"
O=C(NCC(c1ccccc1)c1ccccc1)c1nn(-c2ccccc2Cl)nc1CO,inactive: 21.6%,
Cc1ccc(-c2csc(NC(=O)C3CCN(S(=O)(=O)c4cccs4)CC3)n2)cc1,,"inconclusive: 39.8 µM [inhibitor, single point]"
Cc1ccc(Cl)cc1N1CCN(C(=O)c2ccc3c(c2)N(Cc2ccccc2F)C(=O)c2ccccc2S3(=O)=O)CC1,inactive: 13.6%,
CNc1ccc(Br)cc(C(=O)/C=C/c2cc(OC)ccc2OC)c1=O,,"inconclusive: 39.8 µM [activator, single point]"
CC(=O)C1=C(c2ccc(Cl)c(Cl)c2)N(C(C)=O)n2c(C)nnc2S1,,"inconclusive: 39.8 µM [activator, single point]"
CCCc1nnc2n1N=C(c1ccc(-c3cc(Cl)ccc3Cl)o1)CS2,,active: 15.8 µM
O=C(CCn1cnc2ccccc2c1=O)NCc1ccccc1,inactive: 2.12%,
CC1CCN(S(=O)(=O)c2ccc3ncn(CC(=O)N(C)Cc4ccccc4)c(=O)c3c2)CC1,,"inconclusive: 39.8 µM [activator, single point]"
O=S(=O)(c1ccc2[nH]c3c(c2c1)CCCCC3)N1CCN(c2ccccc2)CC1,,active: 25.1 µM
COC(=O)c1cc(OC)c(OC)cc1NC(=O)C(C)c1ccc([N+](=O)[O-])cc1 (centres undefined),,"inconclusive: 31.6 µM [activator, single point]"

# Source: PubChem BioAssay AID1476 (National Center for Advancing Translational Sciences (NCATS), 2009)
